PubChem BioAssay AID686979 (National Center for Advancing Translational Sciences (NCATS), 2013)
Where “and” joins values, the source holds several entries; their conditions need not be identical. Identical values can stand only once. Among all 420,000 compounds or so, about 50,000 (12%) were called active. Inconclusive means that the source gave no clear call. Such entries were picked first, then a sample of the others. Calls come from the whole dose curve; as a rule, active = well fitted inhibition curve with a large enough effect; inconclusive = small, poorly fitted or top-dose-only effect; inactive = flat fitted curve, though single readings scatter. Where the call is inconclusive, the potency comes from a doubtful curve fit.

Assay: qHTS for Inhibitors of human tyrosyl-DNA phosphodiesterase 1 (TDP1): qHTS in cells in presence of CPT; note: nearly all actives have a fitted effect of over 55% in size
Conditions: chicken DT40 Tdp1-/-;hTDP1 cells + 20 nM CPT, ATP luminescence, 48 h; activity change, negative = growth inhibition: at 46.2 µM (top of the series)
Summary of the method: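 Chicken DT40 Tdp1-/- cells complemented with human TDP1, 400 cells/well, exposed to compounds plus 20 nM camptothecin for at least 48 h at 37 C; viability read as ATP content by CellTiter-Glo luminescence.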
% is set by controls: 0 for no effect and ±100 for the full control effect; potency is the fitted concentration of half-maximal effect; tags give direction and shape of the fitted curve.

Row | Compound | Potency | activity change, negative = growth inhibition
1 | N#Cc1cccc(NC(=O)C2CCN(S(=O)(=O)c3ccc4c(c3)CCCN4C(=O)C3CCC3)CC2)c1 | inconclusive: 29.1 µM [inhibitor, single point] | 
2 | Cn1c(N)c(C(=O)COC(=O)C2Cc3ccccc3CN2S(C)(=O)=O)c(=O)n(C)c1=O (centres undefined) | inconclusive: 13 µM [inhibitor, partial curve] | 
3 | CC(C)(C)NC(=O)[C@@H]1CN(Cc2cccnc2)CCN1C[C@@H](O)C[C@@H](Cc1ccccc1)C(=O)N[C@H]1c2ccccc2C[C@H]1O | inactive and inconclusive: 33.5 µM [inhibitor, single point] | 
4 | C=Cc1ccc(Cn2c(C)c(C(=O)NCc3cccc(C(F)(F)F)c3)sc2=O)cc1 | inconclusive: 23.1 µM [inhibitor, single point] | 
5 | CC1=C(C(=O)OCCOc2ccccc2)C(c2ccc(C)o2)C2=C(CC(C)(C)CC2=O)N1 (centres undefined) | inconclusive: 29.1 µM [inhibitor, single point] | 
6 | CCCOc1ccc2c(CC)cc(=O)oc2c1C | inconclusive: 29.1 µM [inhibitor, single point] | 
7 | COc1ccc(NC(=O)c2cc(-c3ccc(F)cc3OC(C)C)n[nH]2)cn1 | inconclusive: 29.1 µM [inhibitor, single point] | 
8 | Cc1ccc(C(=O)OC(C(=O)Nc2ccc(Cl)cc2C(F)(F)F)c2ccccc2)cc1 (centres undefined) | inconclusive: 7.31 µM [inhibitor, partial curve, poor fit] | 
9 | O=c1oc2ccccc2c(N2CCCCC2)c1[N+](=O)[O-] | active: 16.4 µM | 
10 | COC(=O)C1=C(C)OC(N)=C(C#N)C1c1ccc(OC)c(OC)c1OC (centres undefined) | inconclusive: 20.6 µM [inhibitor, partial curve] | 
11 | CC(=O)c1cccc(S(=O)(=O)N2CCC(C(=O)Nc3cccc(C(=O)NC4CC4)c3)CC2)c1 |  | inactive: 1.39%
12 | C=CCc1cc(Cl)ccc1OCCNCCN1CCOCC1 | inconclusive: 3.26 µM [inhibitor, full curve, poor fit] | 
13 | Cc1nc(-c2ccc(F)cc2)sc1CCNC(=O)c1ccccc1C(F)(F)F | inconclusive: 29.1 µM [inhibitor, single point] | 
14 | COc1ccc(-n2nc3c(c2NC(=O)c2ccc(Br)o2)CS(=O)(=O)C3)cc1 |  | inactive: 0.728%
15 | O=C(c1cncc(Br)c1)N1CCN(S(=O)(=O)c2ccc3ccccc3c2)CC1 |  | inactive: -11.1%
16 | Cc1ccc(C(c2ccc(C)o2)c2cccc([N+](=O)[O-])c2O)o1 |  | inactive: -23.8%
17 | COc1ccccc1N1CC(C(=O)Nc2ccc(N3CCOCC3)cc2)CC1=O (centres undefined) |  | inactive: -8.73%
18 | O=C1c2ccccc2C(=O)N1CSc1nnc2c3ccccc3n(CCc3ccccc3)c2n1 | inconclusive: 18.4 µM [inhibitor, single point] | 
19 | Cc1ccc(-c2c[nH]c(=S)n2-c2ccccc2F)cc1 | inconclusive: 23.1 µM [inhibitor, single point] | 
20 | CC(=O)N1c2ccc(S(=O)(=O)N3CCCC(C(=O)Nc4ccc(C)cc4C)C3)cc2CC1C (centres undefined) | inconclusive: 23.1 µM [inhibitor, single point] | 
21 | Cc1cc(C)nc(Nc2ccc(N3CCOCC3)cc2)n1 |  | inactive: -13%
22 | Cc1cc(C)c(Cn2cnc(-c3ccc([N+](=O)[O-])cc3)c2)c(C)c1 | active: 13 µM | 

Row | Compound | Potency | activity change, negative = growth inhibition
23 | Cc1ccc(S(=O)(=O)CC(c2ccccc2)N2CCCCC2)cc1 (centres undefined) |  | inconclusive: -31.8% [inhibitor]
24 | Cc1cccc(C)c1NC(=O)CN(C)S(=O)(=O)c1ccc(-c2ccc(=O)[nH]n2)s1 | inconclusive: 16.4 µM [inhibitor, partial curve, poor fit] | 
25 | COc1ccc(S(=O)(=O)Cc2ccc(C(=O)NCc3ccccc3OC)o2)cc1 | active: 20.6 µM | 
26 | O=C1CSC(=S)N1c1ccc(O)cc1 | inconclusive: 20.6 µM [inhibitor, single point] | 
27 | O=C(NCc1ccccc1)C(c1ccc(Cl)cc1)N(C(=O)c1csnn1)C1CC1 (centres undefined) | inconclusive: 20.6 µM [inhibitor, single point] | 
28 | CC1=C/C(=C(/c2ccc(O)c(C)c2)c2ccccc2S(=O)(=O)O)C=CC1=O |  | inactive: 1.82%
29 | O=C(Nc1cc(Cl)ccc1Cl)N1CCCC1 | active: 20.6 µM | 
30 | CC(=O)NCCc1c(Cc2ccccc2)[nH]c2ccccc12 | inactive and inconclusive: 33.5 µM [inhibitor, single point] | 
31 | O=C(NNC(=O)c1ccccc1[N+](=O)[O-])c1ccco1 |  | inactive: -7.58%
32 | Cn1cccc1C(=O)OCC(=O)c1ccc(Br)s1 |  | inactive: 2.4%
33 | O=C(Oc1ccc(-c2nnco2)cc1)N(c1ccccc1)c1ccccc1 | inconclusive: 29.1 µM [inhibitor, single point] | 
34 | O=C1COc2ccc(C(=O)COC(=O)/C=C/c3ccc(Br)o3)cc2N1 |  | inactive: -29%
35 | CC1(C(=O)NS(=O)(=O)c2cccs2)CCN1C(=O)CC1CC1 (centres undefined) |  | inactive: -1.63%
36 | O=C(CSc1nc2ccccc2[nH]1)Nc1ccc2c(c1)CCC2 | inconclusive: 29.1 µM [inhibitor, single point] | 
37 | CCCCCc1nc2c(C#N)c(-c3ccc(Cl)cc3)ccn2n1 |  | inactive: -25.8%
38 | O=C(O)c1ccccc1Nc1cccc(OCc2ccc3ccccc3n2)c1 | inconclusive: 26.6 µM [inhibitor, single point] | 
39 | Cc1c(Cl)cccc1NC(=O)CNC(=O)c1cn(-c2ccccc2)nc1-c1cccnc1 | inconclusive: 29.1 µM [inhibitor, single point] | 
40 | Cn1c(C(=O)NC2CC2)cc2c(=O)n(C)c3ccccc3c21 | inconclusive: 29.1 µM [inhibitor, single point] | 
41 | O=C(Nc1ccc2c(c1)CCC2)c1ccccc1 | inconclusive: 23.1 µM [inhibitor, single point] | 
42 | CCOc1ccc(NS(=O)(=O)c2ccc(C(=O)N3CCN(c4ncccn4)CC3)cc2)cc1 | active: 9.2 µM | 
43 | CCOC(=O)CSc1nc2ccccc2c(=O)n1CC1COc2ccccc2O1 (centres undefined) | inconclusive: 25.9 µM [inhibitor, single point] | 
44 | CCOC(=O)c1c(NC(=O)CSc2nnc(-c3ccc(OC)cc3)o2)sc2c1CCC2 | inconclusive: 20.6 µM [inhibitor, single point] | 
